Measurements published in the supplement of paper PMC4166925.
± gives the standard deviation of the averaged measurements. The full ranking holds about 33,000 sequences; the median of “E-score (dimensionless, -0.5 to 0.5)” is about -0.049, and the highest 2% start at about 0.37. Some of the results follow.

These sequences were tested on T1, PmTbr T-box DNA-binding domain (GST fusion) (assay: PBM E-score of 8-mer (E-score (dimensionless, -0.5 to 0.5)); Tbr is Tbrain of the sea star Patiria miniata (Pm) or the sea urchin Strongylocentrotus purpuratus (Sp); higher = stronger binding preference; most listed sequences are background and not binding sites). Conditions: the construct has about 5 more residues each side.
T1 sequence: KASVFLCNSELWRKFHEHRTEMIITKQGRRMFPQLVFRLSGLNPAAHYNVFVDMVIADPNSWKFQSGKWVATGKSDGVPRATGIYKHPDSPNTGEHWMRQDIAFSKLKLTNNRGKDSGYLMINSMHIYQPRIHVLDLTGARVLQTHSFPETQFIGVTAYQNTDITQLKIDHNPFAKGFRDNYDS
Outline: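 Using the Universal PBM Analysis Suite, every ungapped 8-mer received an enrichment E-score averaged over duplicate arrays. Probe intensities came from double-stranded Universal Agilent oligonucleotide arrays incubated with 200 nM GST-fused Tbr T-box DNA-binding domain in PBS (pH 7.5). That protein was expressed in BL21 E. coli at 20 °C and purified by glutathione affinity chromatography.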

Sequence	PBM E-score of 8-mer
CAGTAGCA	0.0969 ± 0.018
ACCCTCCT	0.0385 ± 0.044
GATTGAGC	-0.0167 ± 0.033
ACGTACGA	-0.143 ± 0.083
ATGGCGAG	0.111 ± 0.062
CAGCCGTA	-0.272 ± 0.0054
AGTATGGA	-0.289 ± 0.013
AGCCCGTG	-0.171 ± 0.049
CACGATGA	0.133 ± 0.024
ACGTGTCC	0.0892 ± 0.034
AGTTATCC	-0.205 ± 0.019
TGCGGGAA	-0.102 ± 0.05
CTAGCTGA	0.0629 ± 0.025
AGTAAGAA	-0.229 ± 0.0037
AAGAGAAA	-0.205 ± 0.029
GCTCAACC	-0.238 ± 0.0053
GAAATTGA	-0.0565 ± 0.0088
CGAAAGGA	-0.0387 ± 0.049
AAAGCACG	-0.0186 ± 0.0062
CACCCCCA	0.235 ± 0.012
GCATTCTA	-0.263 ± 0.011
AAGACCTG	-0.0244 ± 0.028

Sequence	PBM E-score of 8-mer
AAAGCGAG	-0.0361 ± 0.052
GCGTGGGA	-0.0996 ± 0.047
CCAAACAC	0.263 ± 0.022
AACCGCTG	0.0537 ± 0.018
AATACCAG	-0.222 ± 0.015
TGTCCTAA	-0.199 ± 0.11
AAATACCA	-0.119 ± 0.062
GAAGCTAC	-0.167 ± 0.019
AACACAAC	0.188 ± 0.048
AAAGCAAT	-0.364 ± 0.055
GGCTTACA	-0.113 ± 0.034
TACGTATA	-0.0845 ± 0.049
AAGGGACA	-0.0677 ± 0.0034
GGATGGCA	-0.161 ± 0.015
AGAGTATC	-0.0617 ± 0.035
GGGGCGAA	-0.0721 ± 0.014
ACTGTGCG	0.102 ± 0.022
ATTGTGTG	0.269 ± 0.0039
ACCTCCGA	0.253 ± 0.033
GCCCTCCA	-0.174 ± 0.048
ATCTACCC	-0.231 ± 0.071
CCATTACG	-0.0993 ± 0.055

Sequence	PBM E-score of 8-mer
CCCACACG	0.0862 ± 0.0074
AGGTTTTG	0.115 ± 0.081
CACCCCCG	0.216 ± 0.014
ACCGGTGA	0.127 ± 0.029
ACAACTCT	0.185 ± 0.013
ACAACTGA	0.172 ± 0.019
AGATCAAC	-0.228 ± 0.076
AGGTACCA	-0.0398 ± 0.018
ATGTTGCG	0.109 ± 0.013
CATACTAG	-0.0501 ± 0.02
ATCTAAGC	-0.151 ± 0.0099
CCTGTATC	-0.0718 ± 0.014
ATCCAACA	0.137 ± 0.0041
GCCGAGTA	-0.0427 ± 0.048
AAGGGAAA	-0.237 ± 0.0069
CCGAAGCG	0.00215 ± 0.00026
ACGAGGCC	-0.193 ± 0.045
ATGGTGTG	0.383 ± 0.0049
GCTTTCAC	0.26 ± 0.011
ACTTCCAC	0.0492 ± 0.063
AACGGGGG	0.0167 ± 0.04
ACGCGAGT	0.0375 ± 0.014

Sequence	PBM E-score of 8-mer
AGATATAG	-0.179 ± 0.022
AGGTCTAG	-0.216 ± 0.049
GGTCGACA	0.266 ± 0.016
CATAGCAG	0.0581 ± 0.06
ACGAGCTC	-0.189 ± 0.081
GATACCAC	-0.0238 ± 0.015
TGTCTGAA	0.182 ± 0.0081
GGGATACC	-0.262 ± 0.064
ATAGTGTA	0.0192 ± 0.0016
CACAAGAA	-0.123 ± 0.0027
AGTTTTCA	-0.00473 ± 0.12
AAGCTTCT	-0.235 ± 0.045
AGGATGGG	-0.294 ± 0.02
AAGCAAAC	-0.0933 ± 0.0052
AGTAACCG	-0.133 ± 0.011
CGTTGGAA	-0.16 ± 0.043
AACATTGC	0.00147 ± 0.078
CCTCCCCA	-0.0174 ± 0.029
AACTCAGC	-0.0823 ± 0.044
CGTAGGGA	-0.146 ± 0.029
